Test results as given in the supplement of paper PMC4604168 (melanoma cell lines).
This is one part of the list. Repeats are few or missing, and single values can be far off.

How the values were obtained:
Test in all cases: cell count relative to DMSO control; melanoma cells; higher = more viable cells
Conditions in all cases: library dose: low library concentration; 72 h
COLO792 = tested on: COLO792
COLO800 = tested on: COLO800
COLO829 = tested on: COLO829
G361 = tested on: G361
IPC-298 = tested on: IPC-298
IST-MEL1 = tested on: IST-MEL1
LB2518-MEL = tested on: LB2518-MEL
LOXIMVI = tested on: LOXIMVI
MEL-HO = tested on: MEL-HO
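Also: cell number obtained by counting DAPI-stained nuclei in high-throughput microscope images with image analysis software, screen run in 1,536-well plates.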

SMILES	cell count (COLO792)	cell count (COLO800)	cell count (COLO829)	cell count (G361)	cell count (IPC-298)	cell count (IST-MEL1)	cell count (LB2518-MEL)	cell count (LOXIMVI)	cell count (MEL-HO)
Cn1c(Nc2ccc(C(F)(F)F)cc2)nc2cc(Oc3ccnc(-c4ncc(C(F)(F)F)[nH]4)c3)ccc21 + C[C@@H]1CCN(C(=O)CC#N)C[C@@H]1N(C)c1ncnc2[nH]ccc12 [CP690550] (first compound 0.08 µM, partner dose 1 µM)	48.9%	146%	97.2%	68.1%	67.8%	95.2%	56.6%	95%	76%
C#Cc1cccc(Nc2ncnc3cc(OCCOC)c(OCCOC)cc23)c1 [erlotinib] + Cn1cncc1[C@@](N)(c1ccc(Cl)cc1)c1ccc2c(c1)c(-c1cccc(Cl)c1)cc(=O)n2C [tipifarnib] (first compound 0.8 µM, partner dose 0.01 µM)	79.4%	102%	100%	89.9%	89.3%	103%	84.7%	76.1%	100%
Clc1ccc(Nc2nnc(Cc3ccncc3)c3ccccc23)cc1 [vatalanib] + OCCn1cc(-c2cnc3nnn(Cc4ccc5ncccc5c4)c3n2)cn1 [PF04217903] (first compound 2 µM, partner dose 1 µM)	97.5%	99.7%	82.3%	104%	93.1%	99.3%	93.5%	66.7%	85.2%
C#Cc1cccc(Nc2ncnc3cc(OCCOC)c(OCCOC)cc23)c1 [erlotinib] + CC(C)(C)c1cnc(CSc2cnc(NC(=O)C3CCNCC3)s2)o1 [SNS-032] (first compound 0.8 µM, partner dose 0.01 µM)	87%	83.1%	113%	112%	102%	99.4%	78.6%	68.9%	103%
OCc1c[nH]c2ccccc12 [Indole-3-carbinol] + CC(C)(C)c1cnc(CSc2cnc(NC(=O)C3CCNCC3)s2)o1 [SNS-032] (first compound 0.8 µM, partner dose 0.01 µM)	103%	109%	114%	101%	103%	96.2%	83%	128%	93.2%
OCc1c[nH]c2ccccc12 [Indole-3-carbinol] + CN(C)S(=O)(=O)c1ccc2c(c1)/C(=C/c1cc3c([nH]1)CCCC3)C(=O)N2 [SU6656] (first compound 0.8 µM, partner dose 0.4 µM)	77.3%	51.2%	94.4%	102%	105%	92%	108%	77.6%	89%
Cn1c(Nc2ccc(C(F)(F)F)cc2)nc2cc(Oc3ccnc(-c4ncc(C(F)(F)F)[nH]4)c3)ccc21 + OCCn1cc(-c2cnc3nnn(Cc4ccc5ncccc5c4)c3n2)cn1 [PF04217903] (first compound 0.08 µM, partner dose 1 µM)	61.7%	92.9%	97.1%	81.4%	77.8%	98.6%	60.4%	85.9%	69.2%
Clc1ccc(Nc2nnc(Cc3ccncc3)c3ccccc23)cc1 [vatalanib] + O=C1NC(=O)/C(=C/c2ccc(-c3ccc(F)cc3O)o2)S1 [AS252424] (first compound 2 µM, partner dose 1 µM)	93.9%	94.4%	130%	87.4%	90.3%	95.4%	101%	99.3%	91.8%
OCc1c[nH]c2ccccc12 [Indole-3-carbinol] + O=c1cc(-c2cccc3c2Sc2ccccc2S3)oc(N2CCOCC2)c1 [KU55933] (first compound 0.8 µM, partner dose 1 µM)	102%	103%	110%	108%	110%	116%	105%	103%	112%
Clc1ccc(Nc2nnc(Cc3ccncc3)c3ccccc23)cc1 [vatalanib] + COc1cc2c(Oc3ccc4[nH]c(C)cc4c3F)ncnc2cc1OCCCN1CCCC1 [cediranib] (first compound 2 µM, partner dose 0.4 µM)	82.4%	87.6%	92%	98.7%	91.7%	99.3%	93.2%	78.4%	88.7%
O=C(CCCCCCC(=O)Nc1ccccc1)NO [vorinostat] + C[C@@H]1CCN(C(=O)CC#N)C[C@@H]1N(C)c1ncnc2[nH]ccc12 [CP690550] (first compound 0.08 µM, partner dose 1 µM)	109%	84.7%	96.2%	98.4%	99.5%	97.4%	115%	96%	96.9%
OCc1c[nH]c2ccccc12 [Indole-3-carbinol] + O=S(=O)(c1ccccc1)N(CC(F)(F)F)c1ccc(C(O)(C(F)(F)F)C(F)(F)F)cc1 [T0901317] (first compound 0.8 µM, partner dose 1.4 µM)	90.8%	92.8%	91.6%	107%	97.8%	104%	83%	135%	98%
Clc1ccc(Nc2nnc(Cc3ccncc3)c3ccccc23)cc1 [vatalanib] + c1cc(-c2cnn3cc(-c4ccc(OCCN5CCCCC5)cc4)cnc23)ccn1 [Dorsomorphin] (first compound 2 µM, partner dose 0.4 µM)	79%	92.2%	84.8%	98.9%	96.8%	96.4%	100%	98%	85.5%
C#Cc1cccc(Nc2ncnc3cc(OCCOC)c(OCCOC)cc23)c1 [erlotinib] + CC1(C)NC(=O)N(c2ccc([N+](=O)[O-])c(C(F)(F)F)c2)C1=O [nilutamide] (first compound 0.8 µM, partner dose 1 µM)	86.7%	85.9%	106%	104%	96.5%	106%	105%	52.3%	96.7%
COCC[n+]1c2c(n(Cc3cnccn3)c1C)C(=O)c1ccccc1C2=O + NCC(=O)Nc1ccc(-n2nc(C(F)(F)F)cc2-c2ccc3c(ccc4ccccc43)c2)cc1 [OSU03012] (first compound 0.0004 µM, partner dose 1 µM)	85%	98.7%	74.7%	90%	82.4%	81.6%	101%	94.8%	95.9%
O=C(CCCCCCC(=O)Nc1ccccc1)NO [vorinostat] + Cn1cncc1[C@@](N)(c1ccc(Cl)cc1)c1ccc2c(c1)c(-c1cccc(Cl)c1)cc(=O)n2C [tipifarnib] (first compound 0.08 µM, partner dose 0.01 µM)	87.4%	138%	103%	105%	101%	89.9%	82.9%	115%	82.7%
OCc1c[nH]c2ccccc12 [Indole-3-carbinol] + CC(C)CCN1c2nc(Nc3cc(F)c(O)c(F)c3)ncc2N(C)C(=O)C1C [BID1870] (first compound 0.8 µM, partner dose 0.2 µM)	84.2%	89%	93.7%	93.3%	92%	106%	88.4%	94.7%	96.6%
Clc1ccc(Nc2nnc(Cc3ccncc3)c3ccccc23)cc1 [vatalanib] + O=C(Nc1cccc(Cl)c1)Nc1ncc(CCNc2ncnc3ccsc23)s1 [SNS314] (first compound 2 µM, partner dose 0.0008 µM)	98.6%	106%	91.9%	101%	95%	94.6%	112%	109%	86.7%
Clc1ccc(Nc2nnc(Cc3ccncc3)c3ccccc23)cc1 [vatalanib] + Oc1cc(-c2nc(-c3ccccc3)[nH]c2-c2ccncc2)ccc1Cl [L779450] (first compound 2 µM, partner dose 0.2 µM)	86.3%	75.6%	102%	72.2%	81%	92.3%	102%	94.8%	68.8%
Cn1c(Nc2ccc(C(F)(F)F)cc2)nc2cc(Oc3ccnc(-c4ncc(C(F)(F)F)[nH]4)c3)ccc21 + O=C(O)c1ccc(-c2c[nH]c3ncc(-c4ccccc4)cc23)cc1C1CCCC1 [GSK650394] (first compound 0.08 µM, partner dose 0.16 µM)	38.3%	113%	88.3%	70%	66.5%	87.9%	44%	63.7%	65.9%
COCC[n+]1c2c(n(Cc3cnccn3)c1C)C(=O)c1ccccc1C2=O + O=C(Nc1cccc(Cl)c1)Nc1ncc(CCNc2ncnc3ccsc23)s1 [SNS314] (first compound 0.0004 µM, partner dose 0.0008 µM)	103%	70.3%	111%	104%	85.9%	76.6%	84.6%	75.3%	111%
Clc1ccc(Nc2nnc(Cc3ccncc3)c3ccccc23)cc1 [vatalanib] + CO[C@@H]1[C@H](N(C)C(=O)c2ccccc2)C[C@H]2O[C@]1(C)n1c3ccccc3c3c4c(c5c6ccccc6n2c5c31)C(=O)NC4 [Midostaurin] (first compound 2 µM, partner dose 0.08 µM)	89.1%	96.3%	76.8%	88.9%	91%	86.3%	93%	79.5%	80.3%
